{"source": "a collection of fitness landscapes (doi:10.1126/science.1257360)", "parents": {"B1": {"name": "PhoQ; a variant is named by its letters at X, in order, P23837 (parent)", "chain": "MKKLLRLFFPLSLRVRFLLATAAVVLVLSLAYGMVALIGYSVSFDKTTFRLLRGESNLFYTLAKWENNKLHVELPENIDKQSPTMTLIYDENGQLLWAQRDVPWLMKMIQPDWLKSNGFHEIEADVNDTSLLLSGDHSIQQQLQEVREDDDDAEMTHSVAVNVYPATSRMPKLTIVVVDTIPVELKSSYMVWSWFIYVLSANLLLVIPLLWVAAWWSLRPIEALAKEVRELEEHNRELLNPATTRELTSLVRNLNRLLKSERERYDKYRTTLTDLTHSLKTPLXXLQXXLRSLRSEKMSVSDAEPVMLEQISRISQQIGYYLHRASMRGGTLLSRELHPVAPLLDNLTSALNKVYQRKGVNISLDISPEISFVGEQNDFVEVMGNVLDNACKYCLEFVEISARQTDEHLYIVVEDDGPGIPLSKREVIFDRGQRVDTLRPGQGVGLAVAREITEQYEGKIVAGESMLGGARMEVIFGRQHSAPKDE"}}, "note": "The other results are listed elsewhere or left out.", "data": [{"variants_of": "B1", "experiment": "enrichment ratio after two sorts for PhoP signalling (ratio (wild type AVST 3.29)); higher = more functional", "conditions": "with PhoP (E. coli)", "values": [{"variant": "ATPR", "enrichment ratio": "≤ 0.25"}, {"variant": "TDML", "enrichment ratio": 5.55}, {"variant": "YYYQ", "enrichment ratio": "≤ 0.25"}, {"variant": "HNQV", "enrichment ratio": "≤ 0.25"}, {"variant": "MWFP", "enrichment ratio": "≤ 0.25"}, {"variant": "TEDN", "enrichment ratio": "≤ 0.25"}, {"variant": "TNFM", "enrichment ratio": "≤ 0.25"}, {"variant": "KKNA", "enrichment ratio": "≤ 0.25"}, {"variant": "VRKN", "enrichment ratio": "≤ 0.25"}, {"variant": "PLCD", "enrichment ratio": "≤ 0.25"}, {"variant": "GQSM", "enrichment ratio": 20.5}, {"variant": "YRLH", "enrichment ratio": "≤ 0.25"}, {"variant": "MHMM", "enrichment ratio": "≤ 0.25"}, {"variant": "QRPK", "enrichment ratio": "≤ 0.25"}, {"variant": "NPQR", "enrichment ratio": "≤ 0.25"}, {"variant": "SYVK", "enrichment ratio": "≤ 0.25"}, {"variant": "HGGP", "enrichment ratio": "≤ 0.25"}, {"variant": "MYDM", "enrichment ratio": "≤ 0.25"}, {"variant": "WKFC", "enrichment ratio": "≤ 0.25"}, {"variant": "DGWR", "enrichment ratio": "≤ 0.25"}, {"variant": "TVAG", "enrichment ratio": 17.8}, {"variant": "NMMM", "enrichment ratio": "≤ 0.25"}, {"variant": "GPAM", "enrichment ratio": "≤ 0.25"}, {"variant": "LWDL", "enrichment ratio": "≤ 0.25"}, {"variant": "AGSK", "enrichment ratio": 0.857}, {"variant": "TYPI", "enrichment ratio": "≤ 0.25"}, {"variant": "EFAR", "enrichment ratio": "≤ 0.25"}, {"variant": "EHGL", "enrichment ratio": "≤ 0.25"}, {"variant": "PWFL", "enrichment ratio": "≤ 0.25"}, {"variant": "YQCM", "enrichment ratio": 3.42}, {"variant": "LAIL", "enrichment ratio": "≤ 0.25"}, {"variant": "PNKD", "enrichment ratio": "≤ 0.25"}, {"variant": "HGHR", "enrichment ratio": "≤ 0.25"}, {"variant": "MHLA", "enrichment ratio": "≤ 0.25"}, {"variant": "GKMA", "enrichment ratio": "≤ 0.25"}, {"variant": "QVSM", "enrichment ratio": 6.39}, {"variant": "VTAN", "enrichment ratio": "≤ 0.25"}, {"variant": "DQVC", "enrichment ratio": "≤ 0.25"}, {"variant": "RRMF", "enrichment ratio": "≤ 0.25"}, {"variant": "DAIK", "enrichment ratio": "≤ 0.25"}, {"variant": "YGFF", "enrichment ratio": "≤ 0.25"}, {"variant": "HTIK", "enrichment ratio": "≤ 0.25"}, {"variant": "FCSM", "enrichment ratio": 0.747}, {"variant": "PWMV", "enrichment ratio": "≤ 0.25"}, {"variant": "EKNA", "enrichment ratio": "≤ 0.25"}, {"variant": "STPM", "enrichment ratio": 15.9}, {"variant": "QHKT", "enrichment ratio": "≤ 0.25"}, {"variant": "PICC", "enrichment ratio": "≤ 0.25"}, {"variant": "YWCW", "enrichment ratio": "≤ 0.25"}, {"variant": "FVND", "enrichment ratio": "≤ 0.25"}, {"variant": "PWHN", "enrichment ratio": "≤ 0.25"}, {"variant": "HVSY", "enrichment ratio": "≤ 0.25"}, {"variant": "LVIR", "enrichment ratio": "≤ 0.25"}, {"variant": "RIPR", "enrichment ratio": "≤ 0.25"}, {"variant": "ICVQ", "enrichment ratio": "≤ 0.25"}, {"variant": "GFHQ", "enrichment ratio": "≤ 0.25"}, {"variant": "YWAS", "enrichment ratio": "≤ 0.25"}, {"variant": "LYST", "enrichment ratio": "≤ 0.25"}, {"variant": "INND", "enrichment ratio": "≤ 0.25"}, {"variant": "MRIG", "enrichment ratio": "≤ 0.25"}, {"variant": "WFAI", "enrichment ratio": "≤ 0.25"}, {"variant": "DIRM", "enrichment ratio": "≤ 0.25"}, {"variant": "DSYQ", "enrichment ratio": "≤ 0.25"}, {"variant": "MNLM", "enrichment ratio": 15.1}, {"variant": "PFEG", "enrichment ratio": "≤ 0.25"}, {"variant": "THYE", "enrichment ratio": "≤ 0.25"}, {"variant": "GFLY", "enrichment ratio": "≤ 0.25"}, {"variant": "VCFY", "enrichment ratio": "≤ 0.25"}, {"variant": "NQYN", "enrichment ratio": "≤ 0.25"}, {"variant": "IWMK", "enrichment ratio": "≤ 0.25"}, {"variant": "RDTK", "enrichment ratio": "≤ 0.25"}, {"variant": "FCYV", "enrichment ratio": "≤ 0.25"}, {"variant": "HLYH", "enrichment ratio": "≤ 0.25"}, {"variant": "HFGI", "enrichment ratio": "≤ 0.25"}, {"variant": "CLSI", "enrichment ratio": "≤ 0.25"}, {"variant": "NMTV", "enrichment ratio": "≤ 0.25"}, {"variant": "YDLY", "enrichment ratio": "≤ 0.25"}, {"variant": "PYLW", "enrichment ratio": "≤ 0.25"}, {"variant": "DRRC", "enrichment ratio": "≤ 0.25"}, {"variant": "MTYI", "enrichment ratio": 10.3}, {"variant": "FPAR", "enrichment ratio": "≤ 0.25"}, {"variant": "CFAL", "enrichment ratio": "≤ 0.25"}, {"variant": "VTRV", "enrichment ratio": "≤ 0.25"}, {"variant": "WWAF", "enrichment ratio": "≤ 0.25"}, {"variant": "ARNA", "enrichment ratio": "≤ 0.25"}, {"variant": "FIKH", "enrichment ratio": "≤ 0.25"}, {"variant": "TGEC", "enrichment ratio": 1.95}, {"variant": "IRSC", "enrichment ratio": "≤ 0.25"}, {"variant": "RTEL", "enrichment ratio": "≤ 0.25"}, {"variant": "QHAC", "enrichment ratio": "≤ 0.25"}, {"variant": "CHRH", "enrichment ratio": "≤ 0.25"}, {"variant": "RNTV", "enrichment ratio": "≤ 0.25"}, {"variant": "GMSW", "enrichment ratio": "≤ 0.25"}, {"variant": "PPAW", "enrichment ratio": "≤ 0.25"}, {"variant": "PIWW", "enrichment ratio": "≤ 0.25"}, {"variant": "NNPD", "enrichment ratio": "≤ 0.25"}, {"variant": "VWPI", "enrichment ratio": "≤ 0.25"}, {"variant": "LWTA", "enrichment ratio": "≤ 0.25"}, {"variant": "SAQK", "enrichment ratio": "≤ 0.25"}, {"variant": "GECE", "enrichment ratio": "≤ 0.25"}, {"variant": "NLDN", "enrichment ratio": "≤ 0.25"}, {"variant": "FENT", "enrichment ratio": "≤ 0.25"}, {"variant": "HYRT", "enrichment ratio": "≤ 0.25"}, {"variant": "KHPF", "enrichment ratio": "≤ 0.25"}, {"variant": "QMVE", "enrichment ratio": "≤ 0.25"}, {"variant": "MNLH", "enrichment ratio": "≤ 0.25"}, {"variant": "DYAR", "enrichment ratio": "≤ 0.25"}, {"variant": "SLEC", "enrichment ratio": "≤ 0.25"}, {"variant": "YGWW", "enrichment ratio": "≤ 0.25"}, {"variant": "LWTH", "enrichment ratio": "≤ 0.25"}, {"variant": "TMLG", "enrichment ratio": 11.6}, {"variant": "IKHW", "enrichment ratio": "≤ 0.25"}, {"variant": "AEYR", "enrichment ratio": "≤ 0.25"}, {"variant": "KHVV", "enrichment ratio": "≤ 0.25"}, {"variant": "DNKG", "enrichment ratio": "≤ 0.25"}, {"variant": "STDW", "enrichment ratio": "≤ 0.25"}, {"variant": "SNGF", "enrichment ratio": 9.13}, {"variant": "WTPL", "enrichment ratio": "≤ 0.25"}, {"variant": "AHDI", "enrichment ratio": "≤ 0.25"}, {"variant": "GDNH", "enrichment ratio": "≤ 0.25"}, {"variant": "RYLS", "enrichment ratio": "≤ 0.25"}, {"variant": "EALV", "enrichment ratio": "≤ 0.25"}, {"variant": "DNVT", "enrichment ratio": "≤ 0.25"}, {"variant": "MAHW", "enrichment ratio": "≤ 0.25"}, {"variant": "FFQE", "enrichment ratio": "≤ 0.25"}, {"variant": "EVRV", "enrichment ratio": "≤ 0.25"}, {"variant": "LVHS", "enrichment ratio": "≤ 0.25"}, {"variant": "GPES", "enrichment ratio": "≤ 0.25"}, {"variant": "FKYF", "enrichment ratio": "≤ 0.25"}, {"variant": "SILR", "enrichment ratio": 5.75}, {"variant": "PLRE", "enrichment ratio": "≤ 0.25"}, {"variant": "TPQI", "enrichment ratio": "≤ 0.25"}, {"variant": "NIIN", "enrichment ratio": "≤ 0.25"}, {"variant": "EHRQ", "enrichment ratio": "≤ 0.25"}, {"variant": "EAEF", "enrichment ratio": "≤ 0.25"}, {"variant": "EKWL", "enrichment ratio": "≤ 0.25"}, {"variant": "FAPA", "enrichment ratio": "≤ 0.25"}, {"variant": "VGQM", "enrichment ratio": 0.803}, {"variant": "AWML", "enrichment ratio": "≤ 0.25"}, {"variant": "AYHH", "enrichment ratio": "≤ 0.25"}, {"variant": "PTRA", "enrichment ratio": "≤ 0.25"}, {"variant": "FKII", "enrichment ratio": "≤ 0.25"}, {"variant": "FYPD", "enrichment ratio": "≤ 0.25"}, {"variant": "LEWC", "enrichment ratio": 17.6}, {"variant": "DEVY", "enrichment ratio": "≤ 0.25"}, {"variant": "AGSY", "enrichment ratio": 14.7}, {"variant": "HEQR", "enrichment ratio": "≤ 0.25"}, {"variant": "RGFS", "enrichment ratio": "≤ 0.25"}, {"variant": "LDLE", "enrichment ratio": "≤ 0.25"}, {"variant": "VFFI", "enrichment ratio": "≤ 0.25"}, {"variant": "IWFQ", "enrichment ratio": "≤ 0.25"}, {"variant": "DSPL", "enrichment ratio": "≤ 0.25"}, {"variant": "LFWH", "enrichment ratio": "≤ 0.25"}, {"variant": "TPKA", "enrichment ratio": "≤ 0.25"}, {"variant": "DLCA", "enrichment ratio": "≤ 0.25"}, {"variant": "TKWD", "enrichment ratio": "≤ 0.25"}, {"variant": "MPHQ", "enrichment ratio": "≤ 0.25"}, {"variant": "YENH", "enrichment ratio": "≤ 0.25"}, {"variant": "WNTQ", "enrichment ratio": "≤ 0.25"}, {"variant": "PVPP", "enrichment ratio": "≤ 0.25"}, {"variant": "TYCP", "enrichment ratio": "≤ 0.25"}, {"variant": "SWMI", "enrichment ratio": "≤ 0.25"}, {"variant": "GTCY", "enrichment ratio": 1.72}, {"variant": "MCCK", "enrichment ratio": "≤ 0.25"}, {"variant": "VIMM", "enrichment ratio": "≤ 0.25"}, {"variant": "YVLI", "enrichment ratio": 1.33}, {"variant": "WYPK", "enrichment ratio": "≤ 0.25"}, {"variant": "GTDL", "enrichment ratio": "≤ 0.25"}, {"variant": "LWRG", "enrichment ratio": "≤ 0.25"}, {"variant": "SYSV", "enrichment ratio": "≤ 0.25"}, {"variant": "ALQS", "enrichment ratio": "≤ 0.25"}, {"variant": "IKYM", "enrichment ratio": "≤ 0.25"}, {"variant": "YWMM", "enrichment ratio": "≤ 0.25"}, {"variant": "DKPA", "enrichment ratio": "≤ 0.25"}, {"variant": "SKYQ", "enrichment ratio": "≤ 0.25"}, {"variant": "NSAV", "enrichment ratio": 2.12}, {"variant": "WWFI", "enrichment ratio": "≤ 0.25"}, {"variant": "NRLA", "enrichment ratio": "≤ 0.25"}, {"variant": "DNAI", "enrichment ratio": "≤ 0.25"}, {"variant": "DEDW", "enrichment ratio": "≤ 0.25"}, {"variant": "FYMG", "enrichment ratio": "≤ 0.25"}, {"variant": "NRPF", "enrichment ratio": "≤ 0.25"}, {"variant": "ELHC", "enrichment ratio": "≤ 0.25"}, {"variant": "DSLF", "enrichment ratio": "≤ 0.25"}, {"variant": "FDYG", "enrichment ratio": "≤ 0.25"}, {"variant": "KMVL", "enrichment ratio": "≤ 0.25"}, {"variant": "MNGY", "enrichment ratio": 6.65}, {"variant": "HSEW", "enrichment ratio": 2.17}, {"variant": "MMHD", "enrichment ratio": "≤ 0.25"}, {"variant": "GRHF", "enrichment ratio": "≤ 0.25"}, {"variant": "GTVA", "enrichment ratio": "≤ 0.25"}, {"variant": "ITYC", "enrichment ratio": "≤ 0.25"}, {"variant": "DKSS", "enrichment ratio": "≤ 0.25"}, {"variant": "AGKG", "enrichment ratio": "≤ 0.25"}, {"variant": "HGQV", "enrichment ratio": "≤ 0.25"}]}]}
